About 12,000 (3.5%) of roughly 340,000 compounds were called active. The shares of active, inactive and inconclusive entries below differ from those in the screen. Calls come from the whole dose curve; as a rule, active = well fitted inhibition curve with a large enough effect; inconclusive = small, poorly fitted or top-dose-only effect, or another doubt; inactive = no such curve, though single readings can be large or run the other way. No potency is given beside an inconclusive call; the fits are too rough.
test: qHTS Assay for Inhibitors of Hepatitis C Virus (HCV); conditions: Huh7.5.1 HCVcc-Cre (HCVcc is cell-culture hepatitis C virus) infection, luciferase reporter, 44 h; activity change, negative = inhibition: at 41.8 µM (top of the series) unless noted
Method in brief: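 Infectious HCV cell culture screen: compound-treated cells (1,000/well, pre-plated 4 h) are infected with HCVcc-Cre at roughly 0.5 moi and grown 44 h. Infection is quantified by luciferase signal after 15 min substrate incubation at room temperature.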
% is set by controls: 0 for no effect and ±100 for the full control effect; potency is the fitted concentration of half-maximal effect; tags give direction and shape of the fitted curve.

Row | Structure (SMILES) | Potency | activity change, negative = inhibition
1 | COc1ccc(CCNC(=O)c2ccc(-c3cccc([N+](=O)[O-])c3)o2)cc1OC | inconclusive [inhibitor, partial curve] | 
2 | Cc1cc(C(=O)N2CCC(CO)(Cc3cccc(C(F)(F)F)c3)CC2)n[nH]1 | inactive | 
3 | COc1ccc(COCC(O)CN(Cc2ccco2)Cc2ccccc2O)cc1 (stereo not given) | inactive | 
4 | CCc1cc2cc(C)ccc2nc1SCC(=O)NC1CCCC1 | inconclusive [inhibitor, single point] | 
5 | CCN(CC)CCNC(=O)C(=O)NCC1OCCN1S(=O)(=O)c1ccc([N+](=O)[O-])cc1 (stereo not given) | inactive | 
6 | Cc1ccc(C[n+]2c(-c3ccc(C)cc3)cc(-c3ccc(C)cc3)cc2-c2ccc(C)cc2)cc1 | active: 2.24 µM | 
7 | COc1ccc(OC)c(/C=N/NC(=O)c2cccc3ccccc23)c1 | inconclusive [inhibitor, full curve, poor fit] | 
8 | Cc1ccc(-c2nc(CS(=O)CC(=O)NC3CCCC(C)C3C)c(C)o2)cc1 (stereo not given) | inconclusive [inhibitor, single point] | 
9 | Nc1nc(CSc2nc3ccccc3s2)nc(N2CCCCC2)n1 | inconclusive [inhibitor, single point] | 
10 | OC(COC(c1ccc(F)cc1)c1ccc(F)cc1)CN1CCCC1 (stereo not given) | inconclusive [inhibitor, partial curve] | 
11 | O=C(NCCN1CCOCC1)c1cc2ccccc2o1 | inactive | 
12 | Cc1ccc(C)c(N2CCN(CCCNC(=O)CCn3c(=O)c4cccn4c4cccnc43)CC2)c1 | inconclusive [inhibitor, partial curve] | 
13 | Cc1ccc(C(=O)CCC2CCCCC2=O)cc1 (stereo not given) | inactive | 
14 | COc1ccccc1CNC(=O)CCN=C1NS(=O)(=O)c2ccccc21 | inactive | 
15 | COc1ccc(Nc2ncnc3ccc(Br)cc23)cc1OC | inconclusive [inhibitor, partial curve] | 
16 | CC1Cc2nc(SCC(=O)Nc3ccc4c(c3)OCO4)n(Cc3ccccc3)c(=O)c2S1 (stereo not given) | inactive | 
17 | O=[N+]([O-])c1ccc(Oc2cccnc2)c([N+](=O)[O-])c1 | inconclusive [inhibitor, single point] | 
18 | CCOc1cc(/C=C2/C(=O)ON=C2C)ccc1O | inactive | 
19 | CCOC(=O)C1=C(CSCc2ccccc2)NC(=O)NC1c1cc(C)ccc1C (stereo not given) | inconclusive [inhibitor, single point] | 
20 | Cc1ccc(C(O)CSc2nnc(-c3ccc4ccccc4c3)n2C)cc1 (stereo not given) | inactive | 
21 | O=C(Cc1ccc(Cl)cc1)Nc1cc(S(=O)(=O)N2CCOCC2)ccc1N1CCCC1 | inactive | 
22 | CN1/C(=C/C(=O)c2nc(S(C)(=O)=O)ncc2Cl)C(C)(C)c2ccccc21 | inconclusive [inhibitor, single point] | 
23 | COc1ccc(C2c3ccc4ccccc4c3Oc3ncn(CCN4CCOCC4)c(=N)c32)cc1OC (stereo not given) | inconclusive [inhibitor, single point] | 
24 | CCN1C(=O)/C(=C/C=C2\N(CC)c3cc(S(=O)(=O)N(C)C)ccc3N2c2ccccc2)SC1=S | inconclusive [inhibitor, full curve, poor fit] | 

Row | Structure (SMILES) | Potency | activity change, negative = inhibition
25 | O=C(/C=C\c1ccccc1)Nc1ccc(NC(=O)c2ccco2)cc1 | inconclusive [inhibitor, partial curve] | 
26 | FC(F)(F)c1cccc(N2CCN(C(=S)NCC3CCCO3)CC2)c1 (stereo not given) | active: 11.2 µM | 
27 | C[C@@]12CCC=C[C@H]1[C@H](c1ccc3ccccc3c1/C=C/c1ccccc1)N(Cc1ccccc1)C2=O |  | inactive: 34.4% [at 8.37 µM]
28 | CCCOP(=O)(c1ccc(N(C)C)cc1)C(Nc1ccccc1)c1ccc(N(C)C)cc1 (stereo not given) | inconclusive [inhibitor, single point] | 
29 | COc1ccc(N(CC(=O)NCCSc2ccc(C)cc2)S(=O)(=O)c2ccccc2)c(OC)c1 | inconclusive [inhibitor, partial curve] | 
30 | Cc1cc2[nH]c(=O)c(=O)[nH]c2cc1S(=O)(=O)NCc1ccc(Cl)cc1 | inactive | 
31 | N#Cc1cn(-c2ccccc2)nc1-c1ccco1 | inactive | 
32 | CCC(C(=O)NCCCN(CC)Cc1ccccc1)n1nc(C)c2sc3ccccc3c2c1=O (stereo not given) | inconclusive [inhibitor, partial curve] | 
33 | O=C(c1cc(-c2ccc3c(c2)OCO3)on1)N1CCCCC1 | inconclusive [inhibitor, single point] | 
34 | CC(=O)c1ccc(-n2nnnc2SCC(=O)Nc2cccc(NC(=O)c3ccco3)c2)cc1 | inconclusive [inhibitor, single point] | 
35 | CCCOc1ccc(-c2nnc(-c3ccncc3)o2)cc1 | active: 11.2 µM | 
36 | COc1ccc(CNC(=O)C(=O)NCC2CCCN2S(=O)(=O)c2cccs2)cc1 (stereo not given) | inconclusive [inhibitor, single point] | 
37 | CN(CC(=O)NCCc1ccccc1)S(=O)(=O)c1cccs1 | inactive | 
38 | Cc1ccc(C(=O)N/C(=C\c2ccc3c(c2)OCO3)C(=O)Nc2ccc(C(=O)O)cc2)cc1 | inactive | 
39 | S=C(NCC1COc2ccccc2O1)Nc1ccc(Br)cc1 (stereo not given) | inconclusive [inhibitor, partial curve, poor fit] | 
40 | Cc1cccc(N2C(=O)CC(Sc3nnc(C)s3)C2=O)c1 (stereo not given) | inconclusive [inhibitor, single point] | 
41 | CCO/C(C)=C1\C(=O)N(CC)c2ccccc21 | inconclusive [inhibitor, single point] | 
42 | O=C(N/N=C/c1ccc2ccccc2c1)c1ccc(COc2ccc3c(c2)CCC3)o1 | inconclusive [inhibitor, partial curve] | 
43 | CN(CCOc1ccc(Cl)cc1)c1ccc(S(=O)(=O)N2CCCCC2)cn1 | active: 14.1 µM | 
44 | CC[n+]1c(-c2ccc(C)cc2)csc1Nc1c(C)n(C)n(-c2ccccc2)c1=O | inconclusive [inhibitor, single point] | 
45 | Cc1ccc(/C([O-])=C(/C(=S)NCc2ccco2)[n+]2ccccc2)cc1[N+](=O)[O-] | inconclusive [inhibitor, single point] | 
46 | O=C(CN1CCC(n2nnc3cc(F)ccc32)CC1)Nc1ccc2c(c1)CCC2 | inconclusive [inhibitor, single point] | 
47 | O=C(NCCO)c1cc2c([nH]c3ccccc32)c(-c2ccc(F)cc2)n1 | active: 11.2 µM | 
48 | Cn1ccnc1C(=O)c1cc(SCC(=O)NC2CC2)nc2ccccc12 | inactive | 

Row | Structure (SMILES) | Potency | activity change, negative = inhibition
49 | COc1ccc(NC(=S)N(CCCN2CCOCC2)Cc2cn(C)c3ccccc23)cc1 | inconclusive [inhibitor, partial curve] | 
50 | O=C1C(Cl)=C(NCc2ccco2)C(=O)c2ccccc21 | active: 8.91 µM | 
51 | CC(C)(C)OC(=O)NCCCCCNC(=O)c1[nH]cnc1C(=O)N[C@@H](CCCCNC(=O)OC(C)(C)C)C(=O)OC(C)(C)C | inconclusive [inhibitor, single point] | 
52 | Cc1ccc(N=Nc2c(N)nn(-c3ccccc3)c2N)cc1 | inconclusive [inhibitor, full curve] | 
53 | O=C(Nc1cccc2c1CCCC2)c1ccc(Br)o1 | inconclusive [inhibitor, single point] | 
54 | O=C(CN1CCN(c2ccccc2)CC1)N1N=CCC1c1ccccc1 (stereo not given) | inconclusive [inhibitor, partial curve] | 
55 | Cn1cc(/C(Cc2ccccc2)=N\O)c2ccccc21 | inconclusive [inhibitor, single point] | 
56 | CCC1CCCCN1CCCNC(=O)C1CCN(Cc2nc(-c3ccc(Cl)cc3)oc2C)CC1 (stereo not given) | active: 1.41 µM | 
57 | Cc1cc(C(F)(F)F)c2c(=O)[nH]c(=O)n(Cc3ccccc3)c2n1 | inactive | 
58 | O=C(OCC(O)C(O)C(O)C(SCc1ccccc1)SCc1ccccc1)c1ccccc1 (stereo not given) | inconclusive [inhibitor, single point] | 
59 | COc1ccc2c(C#CCCO)c(-c3ccc(S(C)(=O)=O)cc3)sc2c1 | inconclusive [inhibitor, partial curve] | 
60 | O=C(c1cn(Cc2ccccc2)nc1-c1cccnc1)N1CCc2ccccc2C1 | inactive | 
61 | Cn1cc(NC(=O)Nc2ccc(C(F)(F)F)cc2)c(C(F)(F)F)n1 | inconclusive [inhibitor, full curve] | 
62 | Cc1c(C(=O)N/N=C/c2ccc(Cl)cc2)[nH]c2ccc(Cl)cc12 | inconclusive [inhibitor, partial curve] | 
63 | Cc1cccc(C(O)(C(=O)NNC(=O)CN2CCN(C)CC2)c2cccc(C)c2)c1 | inactive | 
64 | CCC(C)NC(=O)c1cc2c(=O)n3ccccc3nc2s1 (stereo not given) | inconclusive [inhibitor, single point] | 
65 | CC(C)COP(=O)(OCC(C)C)C(O)c1ccc(F)cc1 (stereo not given) | inactive | 
66 | COc1ccc2[nH]c(C)c(CCN(Cc3cccs3)C(=S)Nc3ccccc3OC)c2c1 | inconclusive [inhibitor, partial curve] | 
67 | COc1ccc(-c2nnc3c4ccccc4c(C)nn23)cc1 | inactive | 
68 | CCC(=O)N1CCc2cc(S(=O)(=O)Nc3ccc4c(c3)OCCO4)ccc21 | active: 2.82 µM | 
69 | N#Cc1c(NC(=O)CSc2ncn[nH]2)sc2c1CCCC2 | inconclusive [inhibitor, single point] | 
70 | CCOC(=O)Cn1c(O)c(N=NC(=O)OC)c2ccccc21 | inconclusive [inhibitor, full curve] | 

Reference: PubChem BioAssay AID651820 (National Center for Advancing Translational Sciences (NCATS), 2012)
